Experimental findings from ChEMBL document CHEMBL4888484, “Replenishing the malaria drug discovery pipeline: Screening and hit evaluation of the MMV Hit Generation Library 1 (HGL1) against asexual blood stage Plasmodium falciparum ,using a nano luciferase reporter read-out” (2022) are described below.

As a reminder, the % Inhibition is the change of the read-out against control, counted positive when it falls.

The campaign covered roughly 150,000 compounds. About 540 (0.36%) showed an effect of 50% or more. This is one part of the list.

The subject of the test is Plasmodium falciparum. Put plainly: Primary screen in NF54 nanoGlo assay, in single point, at 2uM, 72h; a lower Z score goes with more inhibition. The format is functional, Erythrocyte. The note with it: timepoint 72 hour.
For `Cc1ncsc1C(=O)OCc1ncnn1CC(C)C`, the “% Inhibition” value is reported as -3% and the Z score is 0.34.
On to `Clc1cnc(N2CC[C@]3(CCOC3)C2)c(Cl)c1`, for which the “% Inhibition” value is -9% and the Z score is on record as 1.01.
Take `CN1CCN(C)C2(CCN(c3ncccc3C(=O)N3CCCC3)CC2)C1`: the “% Inhibition” value was -18% and the Z score was determined as 1.93.
The matching figures for `O=C(NC1(c2cccs2)CCCC1)c1ccsc1`: 8% and -1.07.
The matching figures for `COc1cccc(OCCc2ccccc2-c2nnc(C)o2)c1`: 6% and -1.32.
With `CCO[C@@H](C)c1nc(Cc2nc(-c3ccc(OC)cc3)no2)cs1`, the “% Inhibition” value is -5% and the Z score is recorded as 0.52.
Turning to `CCOC(=O)c1nc(NC2CCCCCC2)c2c(C)noc2n1`, the “% Inhibition” value stood at 5% and the Z score was -0.96.
In the case of `COCCN1CC[C@H](CNS(=O)(=O)c2c(C)cc(C)c3nonc23)C1`, the “% Inhibition” value is listed as 8% and the Z score was -1.1.
The matching figures for `COc1cccc(CNC(=O)N2CCc3c(F)cc(F)cc3C2)n1`: -30% and 3.46.
The matching figures for `FC(F)(F)c1ccc(CN(CCN2CCOCC2)[C@H]2CCCNC2)cc1`: 7% and -0.89.
Regarding `CCNC(=O)C1=CCN(C(=O)c2cccc(F)c2)CC1`, the “% Inhibition” value turned out to be 7% and the Z score is listed as -1.18.
Turning to `C#CC(CC)(CC)NS(=O)(=O)c1ccc(C)cc1C`, the “% Inhibition” value is given as -5% and the Z score stood at 1.06.
The matching figures for `CN1N=C(C(=O)N[C@H]2CCOc3ccccc32)CCC1=O`: -10% and 1.89.
The matching figures for `c1ccc(Oc2nc(NCc3ccco3)nc(NCc3ccco3)n2)cc1`: -16% and 1.74.
As for `CC(C)(C)c1ccc(NC(=O)c2ccc(C(=O)c3ccccc3)o2)cc1`, the “% Inhibition” value was -3% and the Z score came out at 0.49.
On to `CC(=O)Nc1c(-c2ccc(F)cc2)c(C)nn1-c1ccc(C(=O)Nc2cccc(F)c2)cc1`, for which the “% Inhibition” value is -5% and the Z score is recorded as 0.93.
The matching figures for `Cc1cccnc1[C@H](C)NC(=O)CNC(=O)N(C)C`: -9% and 1.68.
In the same order, the values of `CCN(C[C@@H]1CCCN2CCCC[C@H]12)C(=O)CCc1cc(OC)no1` are -14% and 1.8.
The matching figures for `O=C1CN2C(=O)[C@]3(CCN(C(=O)CCC(F)(F)F)[C@H]3c3cccc(c3)OCCCN1)c1ccccc12`: -5% and 0.56.
With `CC(C)CCNC(=O)[C@]1(C)Cn2c(cc3ccccc32)C(=O)N1C1CCN(Cc2ccccc2)CC1`, the “% Inhibition” value is listed as -4% and the Z score worked out at 0.58.
In the same order, the values of `CCCC(=O)NCC(=O)N1CCC[C@H](N(C)C(=O)c2ccc(C(N)=O)nc2)C1` are 21% and -2.67.
As to `Cc1cc(C)c(S(=O)(=O)NCC2CCC(C(=O)N3CCc4ccccc4C3)CC2)c(C)c1` (configuration not stated), the “% Inhibition” value was -7% and the Z score was 1.22.
In the same order, the values of `Cc1ncc(C(=O)N2CCC[C@H](N(CCCN3CCCC3)C(=O)C(C)C)C2)cn1` are 1% and -0.09.
`NS(=O)(=O)c1ccc(-c2noc(C[C@H]3CCc4ccccc4C3)n2)cc1`: the “% Inhibition” value was determined as 1% and the Z score was -0.28.
In the case of `COc1ccccc1CCC(=O)N1CCCCN(C)C(=O)[C@H](C)NC(=O)COc2cc(O)cc(c2)C(=O)NCCC1`, the “% Inhibition” value is listed as -1% and the Z score is on record as 0.12.
In the same order, the values of `FC(F)(F)c1ccc(-c2c[nH]c([C@@H]3COCCN3C3CCNCC3)n2)cc1` are -3% and 0.52.
The matching figures for `CS(=O)(=O)N(Cc1cccnc1)[C@H]1CCCN(Cc2ccncc2F)C1`: -13% and 1.17.
The matching figures for `CC1(C)CC(N2C(=O)c3cccc(N4CCCC(C(=O)N5CCN(C(=O)c6ccco6)CC5)C4)c3C2=O)CCO1` (configuration not stated): 13% and -1.72.
Regarding `CN(Cc1ccco1)c1ncccc1C#N`, the “% Inhibition” value was -5% and the Z score was 0.51.
In the same order, the values of `Cc1cc(OCc2nccs2)c2cnn(C)c2n1` are -1% and 0.12.
Consider `Cc1cc(OCC(=O)N2CCCC[C@@H]2CCN2CCCCCC2)ccc1Cl`, for which the “% Inhibition” value is reported as -9% and the Z score is 1.1.
In the same order, the values of `O=C(NCC1CCN(C(=O)c2cccs2)CC1)c1cccs1` are 9% and -1.3.
The matching figures for `O=C(c1c2c(nc3ccccc13)CCC2)N1CCC[C@H](C(F)(F)F)C1`: 0% and -0.09.
The matching figures for `CCOc1ccc(S(=O)(=O)N(C)Cc2ccc(Cl)cc2)cc1-c1nc(C(C)C)no1`: -2% and 0.43.
On to `CC1CC2CCCCC2N1S(=O)(=O)c1cccnc1` (configuration not stated), for which the “% Inhibition” value is -3% and the Z score is recorded as 0.43.
The matching figures for `C[C@H](NCc1cc(O)nc(C2CC2)n1)c1ccc(F)cc1F`: -10% and 1.5.
The matching figures for `NC[C@H]1CCCN(Cc2cc3cc4c(cc3nc2-c2ccc(Cl)cc2)OCO4)C1`: 0% and -0.03.
In the same order, the values of `Cc1cnc(C(=O)NC[C@H]2Cn3cccc3CN2Cc2ccccc2)cn1` are -5% and 0.98.
As for `Cc1cccc(NC(=O)C(=O)NCCCc2ccccc2)n1`, the “% Inhibition” value is -11% and the Z score came to 1.68.
In the same order, the values of `Cc1c(NC(=O)N2CCc3n[nH]cc3C2)cccc1N1CCCC1` are -9% and 1.93.
The matching figures for `C[C@H]1Cc2cc(S(N)(=O)=O)ccc2N1S(=O)(=O)c1ccccc1-c1ccccc1`: -10% and 1.84.
